Source: article PMC4336329 (PLoS ONE, 2015)
Hit rate of the full screen: of about 310,000 compounds, about 14,000 (4.5%) showed an effect of 50% or more. The effect is printed as a negative number. Some of the results follow.

The compounds below were run against human ether-à-go-go-related gene (hERG) potassium channel (human, UniProt Q12809) (assay: primary screen, population patch clamp on CHO cells stably expressing hERG).
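Further: peak tail current of the secondary pulse compared with the same well before compound.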

human ether-à-go-go-related gene (hERG) potassium channel, sequence (Q12809 whole entry, looked up): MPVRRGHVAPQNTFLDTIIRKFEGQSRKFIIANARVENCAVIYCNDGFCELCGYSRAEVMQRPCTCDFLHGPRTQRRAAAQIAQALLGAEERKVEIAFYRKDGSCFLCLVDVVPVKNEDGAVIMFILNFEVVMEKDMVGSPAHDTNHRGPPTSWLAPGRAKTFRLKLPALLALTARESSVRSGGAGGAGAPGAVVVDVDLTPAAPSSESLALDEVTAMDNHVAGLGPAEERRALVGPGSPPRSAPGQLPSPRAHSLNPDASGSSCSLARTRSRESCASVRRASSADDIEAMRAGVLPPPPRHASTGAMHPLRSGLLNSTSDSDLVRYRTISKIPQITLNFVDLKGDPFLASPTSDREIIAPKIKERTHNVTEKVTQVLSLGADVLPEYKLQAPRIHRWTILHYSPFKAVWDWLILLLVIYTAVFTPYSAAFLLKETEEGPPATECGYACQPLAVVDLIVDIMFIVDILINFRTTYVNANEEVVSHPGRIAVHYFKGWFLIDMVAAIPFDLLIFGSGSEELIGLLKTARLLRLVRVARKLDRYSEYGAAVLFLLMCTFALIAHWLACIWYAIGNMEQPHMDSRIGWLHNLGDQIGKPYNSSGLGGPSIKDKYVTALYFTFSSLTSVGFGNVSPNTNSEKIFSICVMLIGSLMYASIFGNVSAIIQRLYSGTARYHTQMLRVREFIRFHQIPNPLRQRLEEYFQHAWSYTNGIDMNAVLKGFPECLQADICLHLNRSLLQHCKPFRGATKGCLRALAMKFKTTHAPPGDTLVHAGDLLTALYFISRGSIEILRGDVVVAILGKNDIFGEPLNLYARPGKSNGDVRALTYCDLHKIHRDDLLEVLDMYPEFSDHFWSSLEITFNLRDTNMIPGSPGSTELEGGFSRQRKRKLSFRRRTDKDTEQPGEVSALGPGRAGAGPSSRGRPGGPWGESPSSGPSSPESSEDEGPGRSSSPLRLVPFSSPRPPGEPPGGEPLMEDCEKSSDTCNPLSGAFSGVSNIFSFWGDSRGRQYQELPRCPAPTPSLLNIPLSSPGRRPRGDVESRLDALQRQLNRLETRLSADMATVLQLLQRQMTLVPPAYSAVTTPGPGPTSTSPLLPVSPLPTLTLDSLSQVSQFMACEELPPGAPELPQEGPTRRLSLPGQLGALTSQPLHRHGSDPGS

Compound | hERG current change (%, negative = inhibition) at 10uM [%]
CC1CCCCN1C(=O)CSc1nc(C2CC2)nc2ccccc12 (stereo not drawn) | -27.3
O=P(O)(O)/C=C(\Cl)c1ccccc1 | -3.41
O=C(O)CN(CCc1ccccc1)S(=O)(=O)c1ccccc1 | 27.6
CN(CCOC(=O)/C=C/c1ccccc1)C(C)(C)C.Cl | -22
CCOC(=O)c1c(N)sc2c(O)c(Br)ccc12 | -12.8
Nc1c([N+](=O)[O-])c(=O)sc2ccccc12 | 10.2
N#CCCn1c(SCC(=O)NCC2CCCO2)nc2ccccc21 (stereo not drawn) | 1.96
C/C(=N/NC(=O)c1ccco1)c1ccc(NC(=O)c2ccc(Br)o2)cc1 | 11.4
COc1ccccc1NC(=O)[C@H](COCc1ccccc1)NC(=O)OC(C)(C)C | -5.47
COc1ccccc1NC(=O)c1ccc2nsnc2c1 | 8.53
CC(C)Oc1ccc(Cc2c(O)[nH]c(=O)[nH]c2=O)cc1 | -1.23
CCOC(=O)c1c(C)oc2c(F)c(F)c(F)c(F)c2c1=O | -0.91
CCNC(=O)COC(=O)C1C(C(=O)OCC)=C(C)NC(C)=C1C(=O)OCC | 3.38
CC(=O)Oc1ccc2ccccc2c1C(NC(=O)Cc1ccccc1)c1ccc(Cl)cc1 (stereo not drawn) | -9.07
Cc1ccc(CN(Cc2ccccn2)C(=O)Nc2c(F)cccc2F)cc1 | -0.968
COc1ccc2[nH]c(=O)c(CN(CCO)C(=O)c3ccccc3F)cc2c1 | 13.3
CC(C)(C)c1ccc(O)c(N=Cc2cc(Br)ccc2O)c1 | 13.3
CCOc1ccc(-n2c(SCc3ccc(C(=O)OC)o3)nc3c(c2=O)SCC3)cc1 | -6.51
COc1cc(C)c(C(=O)Oc2cc(C)c(C(=O)O)c(O)c2C)c(OC)c1C | 5.49
CCNc1ccc(C(=O)OCC(=O)Nc2cc(C)on2)cc1[N+](=O)[O-] | 3.63
CC(C)CNC(=O)COC(=O)/C=C/c1ccccc1[N+](=O)[O-] | 5.61
CC1=NC(C(F)(F)F)(C(F)(F)F)C2=C(CC(C)(C)CC2=O)N1Cc1ccco1 | -4.65
O=C(Cc1cccs1)N=Nc1c(O)[nH]c2ccc(Br)cc12 | -4.97

Compound | hERG current change (%, negative = inhibition) at 10uM [%]
Cc1cc(C)c2c(c1)C1(OCCO1)C(=O)N2 | 15.6
O=C(Cn1nnc(-c2ccc(Cl)cc2)n1)NCCC1=CCCCC1 | 5.97
COc1ccc(-c2nn(C)c(=O)c3ccccc23)cc1CNC(=O)CN1CCOCC1 | -3.03
COc1cc(C(=O)Nc2nnc(SCC(=O)NCC3CCCO3)s2)cc(OC)c1OC (stereo not drawn) | 19.9
C/C(=C\C1CCCCC1)C(NC(=O)c1ccc(C(F)(F)F)cc1)c1ccc(-c2ccccc2)cc1 (stereo not drawn) | 15.7
Cc1ccc(Cl)cc1N1CCN(S(=O)(=O)N2CCCCC2)CC1 | 10.1
COc1ccccc1OCCOCCn1cnc2ccccc2c1=O | -3.9
CCc1ccccc1NC(=O)c1cc(-c2ccco2)on1 | 8.57
Cc1cc(C)c(C(=O)CSC2=NC(N)=C(C#N)C3(CCCCC3)C2C(N)=O)cc1C (stereo not drawn) | -6.61
CN(Cc1ccc(Br)cc1)C(=O)CCN1C(=O)c2cccc([N+](=O)[O-])c2C1=O | 21.8
Cc1cc2c(cc1S(N)(=O)=O)S(=O)(=O)CCC2 | 24.5
Cc1c(C(=O)OCCN2CCCCC2)oc2ccccc12.Cl | -43.2
O=C(O)Cn1c(=O)cnc2ccccc21 | 9.56
Cl.N[C@H]1C(O)O[C@H](CO)[C@@H](O)[C@@H]1O (stereo partly drawn) | 22.4
COc1ccc(NC(=O)CSc2nncs2)cc1S(N)(=O)=O | 3.55
Cc1cc2c(NCCc3ccccc3)ncnc2s1.Cl | -14.4
CC12CCC(=O)N1C(C(=O)NNC(=O)COc1ccccc1F)CS2 (stereo not drawn) | 11.1
CC1(C)Cc2ccccc2/C(=C/C(=O)c2ccccc2)N1 | 7.35
O=C(CCC(=O)Nc1ccccc1)N/N=C/c1ccccc1F | 9.14
CC1CCN(CC(O)COc2ccc(F)cc2)CC1 (stereo not drawn) | -37.7
O=C(NNS(=O)(=O)c1ccc(F)cc1)c1cc(Cl)ccc1O | 11.4
CCCCN1CC[C@H]2C=CC[C@@H](C(=O)Nc3ccc(Cl)c(C(F)(F)F)c3)[C@H]2C1=O | -34.2
